Reference: paper PMC4336329 (PLoS ONE, 2015)
Out of some 310,000 compounds screened, about 14,000 (4.5%) showed an effect of 50% or more. The effect is printed as a negative number. The list shows a part of the results.

target: human ether-à-go-go-related gene (hERG) potassium channel (human, UniProt Q12809); experiment: primary screen, population patch clamp on CHO cells stably expressing hERG
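Further: peak tail current of the secondary pulse compared with the same well before compound.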

Sequence of human ether-à-go-go-related gene (hERG) potassium channel (Q12809 whole entry, looked up): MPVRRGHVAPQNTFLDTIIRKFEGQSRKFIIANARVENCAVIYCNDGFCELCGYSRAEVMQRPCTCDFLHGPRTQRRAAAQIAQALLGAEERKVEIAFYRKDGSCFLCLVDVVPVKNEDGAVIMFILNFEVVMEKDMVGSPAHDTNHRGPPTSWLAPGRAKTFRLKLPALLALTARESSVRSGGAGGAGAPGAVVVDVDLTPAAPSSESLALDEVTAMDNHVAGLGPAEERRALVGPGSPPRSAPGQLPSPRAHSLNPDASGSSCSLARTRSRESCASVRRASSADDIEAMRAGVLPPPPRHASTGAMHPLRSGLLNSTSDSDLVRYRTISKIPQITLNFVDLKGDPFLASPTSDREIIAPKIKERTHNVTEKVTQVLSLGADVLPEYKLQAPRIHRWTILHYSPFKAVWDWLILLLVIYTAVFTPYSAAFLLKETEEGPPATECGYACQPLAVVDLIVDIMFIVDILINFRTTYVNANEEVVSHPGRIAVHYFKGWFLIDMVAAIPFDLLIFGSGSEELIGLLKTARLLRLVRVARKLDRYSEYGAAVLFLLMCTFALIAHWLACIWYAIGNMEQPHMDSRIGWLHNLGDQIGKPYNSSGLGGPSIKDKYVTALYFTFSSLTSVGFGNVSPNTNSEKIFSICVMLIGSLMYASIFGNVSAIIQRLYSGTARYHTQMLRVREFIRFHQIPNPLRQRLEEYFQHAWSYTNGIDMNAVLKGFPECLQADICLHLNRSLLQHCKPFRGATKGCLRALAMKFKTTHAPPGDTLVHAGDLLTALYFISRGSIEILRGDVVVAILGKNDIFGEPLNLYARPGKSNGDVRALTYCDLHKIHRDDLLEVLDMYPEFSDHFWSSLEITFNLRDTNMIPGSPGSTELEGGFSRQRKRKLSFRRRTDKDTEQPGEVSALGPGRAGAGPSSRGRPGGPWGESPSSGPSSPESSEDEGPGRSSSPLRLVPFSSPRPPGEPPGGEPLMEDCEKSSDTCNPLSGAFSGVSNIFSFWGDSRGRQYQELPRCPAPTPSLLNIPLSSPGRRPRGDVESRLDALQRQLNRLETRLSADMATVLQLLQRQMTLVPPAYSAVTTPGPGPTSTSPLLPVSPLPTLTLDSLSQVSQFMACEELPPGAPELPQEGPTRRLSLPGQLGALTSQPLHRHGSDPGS

Compound | hERG current change (%, negative = inhibition) at 10uM [%]
CCCc1nnc(NC(=O)CCC(=O)N2CCC3(CC2)OCCO3)s1 | 24.6
COc1ccc(-c2nc(N)nc(C)c2-c2ccc(Cl)cc2)c(O)c1 | 18.4
CC1CC1C(=O)Nc1ccc(-c2ccccc2)cc1 (centres unmarked) | -4.57
COc1ccc(-c2nc3ccccc3c(=O)n2CCCN2CCOCC2)cc1 | 6.17
Cc1ccc(C(=O)NCCCn2ccnc2)o1 | 26.4
Cc1cc(OCC(=O)c2cccc(C(F)(F)F)c2)n2cnnc2n1 | -28.9
COc1ccccc1N1CCN(C2CCN(C(=O)c3cccs3)CC2)CC1 | -38.2
COc1ccc(C2/C=C\CN(CC(C)(C)C)CC(=O)N2Cc2ccc(F)cc2)cc1 (centres unmarked) | 0.258
COc1cccc(NC(=O)CCc2nc(-c3cccs3)no2)c1 | 0.12
Cc1c(N=C2NN=C(c3c[nH]c4ccccc34)CS2)c(=O)n(-c2ccccc2)n1C | 6.94
CCOC1=NN(c2ncc(C(F)(F)F)cc2Cl)C(=O)C1 | 12.1
N#Cc1c(-c2ccccc2)ccn(Cc2ccccc2Cl)c1=O | -11
Cc1ccccc1OC1C(=O)N(CC2CCCO2)C1c1ccc2c(c1)OCO2 (centres unmarked) | -55.8
COC(=O)CC1C(=O)NCCN1C(=S)Nc1cccc(C(F)(F)F)c1 (centres unmarked) | 21.4
CCN(CC)C(=O)c1ccccc1NC(=O)c1cccc(S(=O)(=O)N(CC)CC)c1 | -9.51
CSc1ccc(CNC2CC2)cc1.Cl | -7.3
C=C1C[C@H](O)[C@@H]2[C@H](OC(=O)[C@H]2C)[C@H]2[C@H](C)[C@@H](O)C[C@@H]12 | 17.2
FC(F)(F)c1cccc(N2CCN(c3ccc4nnc(-c5ccccc5)n4n3)CC2)c1 | -4.4
CCOCCOCCC(C(=O)O)P(=O)(c1ccccc1)c1ccccc1 (centres unmarked) | -8.84
CCCn1cnc2cc(NCc3cccs3)ccc21 | -10.9
CCOc1ccc(CCNC(=O)c2cccc3c2C(=O)N(CCOC)C3)cc1OCC | -16.9
COc1ccc(S(=O)(=O)N(CC(=O)N/N=C/c2cccs2)c2cc(C)cc(C)c2)cc1OC | -22.2
Cc1cc(C)c(NC(=O)COC(=O)c2nc3nccc(C)n3n2)c(Cl)c1 | -8.2

Compound | hERG current change (%, negative = inhibition) at 10uM [%]
COC(=O)CNc1nc(C2CC2)nc2c1nnn2Cc1ccccc1Cl | -8.66
CCCn1c(N)c(C(=O)CSc2nc3ccccc3s2)c(=O)[nH]c1=O | -2.95
CC(=O)OCC1OC(n2ccc(=O)[nH]c2=O)C(O)C1O (centres unmarked) | 11.6
Cc1cc(C(=O)NCCc2ccc(Cl)cc2)no1 | 6.19
Cc1ccc(C2=N/C(=C\c3ccc(OS(=O)(=O)c4ccc(C)cc4)cc3)C(=O)O2)cc1 | 10.7
Cc1cc(C(=O)OC(C)C(=O)Nc2cccc(S(=O)(=O)N3CCOCC3)c2)c(C)o1 (centres unmarked) | -23.1
COC(=O)c1c(NC(=O)C(=O)N2CCCC2)sc2c1CC(C)(C)OC2 | 11.7
CCCOc1ccccc1N/C(=N/c1nc(C)cc(C)n1)NC(=O)COc1ccc(OC)cc1 | -10
Cc1ccc(C)c(NC(=O)CSc2nnc(CNC(=O)c3ccco3)n2C)c1 | 3.14
COc1cc(C)c(-c2cc(C(=O)O)c(C)o2)cc1C(C)C | 16.3
COc1ccc(-n2c(SCC#N)nnc2-c2cccnc2)cc1 | -34
CC(=O)Nc1cccc(N=NN2CCOCC2)c1 | 9.55
O=C(Nc1cccc(-c2nnc(-c3ccccc3)o2)c1)C1CC1 | -19.3
CC(=O)c1nn(-c2cccc(Br)c2)cc1C(=O)c1ccc(Cl)cc1 | 0.551
Cc1ccc(NC(=O)c2cc(N3C(=O)C4CC=CCC4C3=O)ccc2N2CCOCC2)cc1Cl (centres unmarked) | 4.08
COc1ccc(NC(=O)CN(C)C(=O)c2ccc(=O)[nH]c2)cc1 | 21.7
CCc1cn(S(=O)(=O)c2ccccc2OC)nc1N | 1.19
COc1ccc(OC)c2sc(NC(=O)C3=COCCO3)nc12 | 10.4
O=C(Cc1ccc2c(c1)OCCO2)Nc1cccc(S(=O)(=O)N2CCOCC2)c1 | -26.4
CCOC(=O)C1(CC)NC(c2cccc(F)c2)C2C(=O)N(CC)C(=O)C21 (centres unmarked) | -8.42
COc1ccc(Br)cc1CN1CCC(N2CCCC2)CC1.O=C(O)C(=O)O | -2.59
Cc1cc(C)n(CCOC(=O)C2C(C=C(Cl)Cl)C2(C)C)n1 (centres unmarked) | -22.1
COc1ccc(NC(=O)/C(C#N)=C\c2cc(OC)c(OCc3ccc(C(=O)O)cc3)cc2Br)cc1 | 14

Compound | hERG current change (%, negative = inhibition) at 10uM [%]
C=CCn1cccc(C(=O)Nc2ccc(OC)c(Cl)c2)c1=O | -7.3
Cc1cc(F)ccc1S(=O)(=O)N1CCCOC1CNC(=O)C(=O)NCc1ccncc1 (centres unmarked) | -1.47
O=C(O)c1cccc(CN2C(=O)c3ccccc3C2=O)c1 | 3.71
COC(=O)C1=CN(c2ccc(F)cc2)C=C(C(=O)OC)C1c1ccc(O)cc1 | -7.62
O=C(C1CC(=O)N(C2CCCCC2)C1)N1CCC2(CC1)OCCO2 (centres unmarked) | 8.28
Cc1cc(=O)nc2c3ccccc3n(C(C)C(=O)Nc3c(F)c(F)c(F)c(F)c3F)n12 (centres unmarked) | -5.49
CN(C)S(=O)(=O)c1cccc(-c2cn3cc(Cl)ccc3n2)c1 | 7.03
Oc1ccc(C(=S)N2CCCCCC2)cc1 | 14.4
Cc1cc(C)n(C(=O)Cn2nc([N+](=O)[O-])cc2C)n1 | -12.2
CC(=O)c1cccc(NC(=O)c2ccc(N(Cc3ccccc3)S(C)(=O)=O)cc2)c1 | -5.79
CCOC(=O)c1c(C)n(C)c2ccc(OCC(O)Cn3nc(C)c(Br)c3C)cc12 (centres unmarked) | 3.85
O=C(COc1ccc(S(=O)(=O)N2CCOCC2)cc1)NCCc1ccccc1 | -13.4
O=S(=O)(Cc1ccccc1)Nc1ccc(Br)cn1 | 14.4
COc1ccccc1NC(=O)c1ccc(NC(=O)COC(=O)C2CC2C)cc1 (centres unmarked) | -16.6
Cc1cccc(-n2nc(C(=O)c3ccco3)cc(-c3nc4ccccc4[nH]3)c2=N)c1 | -65.7
Cc1cc(Nc2ccccc2C(=O)O)n(-c2ccc([N+](=O)[O-])cc2)n1 | 4.19
O=C(NC1CCCCC1)c1c(O)nc2sccn2c1=O | -26
Cc1ccc(C(c2cc(Cl)c3cccnc3c2O)N2CCN(C)CC2)cc1 (centres unmarked) | -9.97
c1ccc2nc3[nH]cnc3nc2c1 | -5.15
O=C(NC1CCCC1)c1cc(S(=O)(=O)N2CCOCC2)c(Cl)cc1Cl | -8.15
COc1ccc(S(=O)(=O)N2CCOCC2)cc1NC(=O)c1cc(=O)[nH]c2ccccc12 | 6.02
Cl.Cn1ccc2cc(NC(=O)Nc3cccnc3)ccc21.O | -4.02
N#CCSc1ccc(-c2nc3ccccc3[nH]2)cn1 | 10.4

Compound | hERG current change (%, negative = inhibition) at 10uM [%]
CC(NC(=O)c1ccncc1)c1ccc(Br)cc1 (centres unmarked) | -0.842
N#CCSc1nc(N)c(C#N)c(C2CCCCC2)c1C#N | 8.44
CC(C)CC1NC(=S)N(Cc2ccccc2)C1=O (centres unmarked) | 0.969
CN(CC(=O)Nc1c(Cl)cccc1Cl)C(=O)c1ccc(-n2cncn2)c([N+](=O)[O-])c1 | 5.71
COc1ccc2c(c1)/C(=N/OC(=O)c1cccs1)CCC2 | -0.994
Cc1onc(-c2ccccc2Cl)c1C(=O)NNC(=O)c1ccc(F)cc1 | 5.81
CC1=Nc2ccccc2N=C(N)C1c1ccccc1 (centres unmarked) | 12.9
COC(=O)Cn1cc(C(=O)OC)c2ccccc21 | -4.51
O=C(OCC1CC(c2ccccc2)=NO1)c1ccco1 (centres unmarked) | 23
CCOc1ccc2nc(NC(=O)C(NS(=O)(=O)c3cccc4nsnc34)C(C)C)sc2c1 (centres unmarked) | 3.06
O=C1NC(=O)/C(=C\c2ccccc2OCc2ccc([N+](=O)[O-])cc2)N1 | -41.5
COc1cc(CCC(=O)Nc2ncc(C)s2)cc(OC)c1OC | 6.18
CC(=O)N1N=C(c2cccs2)CC1c1cccc([N+](=O)[O-])c1 (centres unmarked) | -51.6
CCCCOP(=O)(CN1CCOCC1)OCCCC | 11.3
COc1ccccc1C(=O)COC(=O)C1CCN(S(=O)(=O)c2ccc(C)c(C)c2)CC1 | 11.7
COc1ccc(Cl)cc1NC(=O)N1CCN(S(C)(=O)=O)CC1 | 1.56
CCS(=O)(=O)c1ccc(-c2csc(-c3ccccc3Cl)n2)c(Cl)c1Cl | -4.77
Cc1cccnc1NC(=O)c1nn(C)c2c1CS(=O)(=O)c1ccccc1-2 | 5.7
Cc1ccccc1OCC(=O)Nc1cccc(Cl)c1C | 11.9
CCSc1nc(N2CCOCC2)c2c(c1C#N)CC(C)(C)N(C)C2 | -27.9
